PubChem BioAssay AID2451 (National Center for Advancing Translational Sciences (NCATS), 2010)
Several values for one entry are separate records, joined by “and”; a condition that tells them apart may be missing. Identical values can stand only once. The whole screen tested about 290,000 compounds, of which about 2,100 (0.72%) were called active. The shares of active, inactive and inconclusive entries below differ from those in the screen. Calls come from the whole dose curve; as a rule, active = well fitted inhibition curve with a large enough effect; inconclusive = small, poorly fitted or top-dose-only effect, or effect the other way; inactive = flat fitted curve, though single readings scatter. A potency beside an inconclusive call is a rough fit, not a confirmed value.
Note: nearly all actives have a fitted effect of over 55% in size.
Potency is the fitted concentration of half-maximal effect; tags give direction and shape of the fitted curve.

The molecules below were run against Fructose-bisphosphate aldolase (Giardia intestinalis (strain ATCC 50803 / WB clone C6)) (UniProt A8B2U2) (assay: qHTS Assay for Inhibitors of Fructose-1,6-bisphosphate Aldolase from Giardia Lamblia). Conditions: purified Giardia FBPA; series mostly up to 59.6 µM.
UniProt A8B2U2, sequence (A8B2U2 whole entry, looked up): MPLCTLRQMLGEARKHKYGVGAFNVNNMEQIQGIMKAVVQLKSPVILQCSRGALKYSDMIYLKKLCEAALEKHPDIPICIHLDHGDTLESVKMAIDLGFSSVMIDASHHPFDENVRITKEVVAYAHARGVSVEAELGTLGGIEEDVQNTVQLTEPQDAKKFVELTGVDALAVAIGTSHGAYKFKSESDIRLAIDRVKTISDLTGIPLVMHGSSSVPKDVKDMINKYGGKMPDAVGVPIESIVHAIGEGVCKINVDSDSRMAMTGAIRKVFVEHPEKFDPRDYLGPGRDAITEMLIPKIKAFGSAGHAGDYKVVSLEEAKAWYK
Method in brief: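 40 nM FBPA preincubated 10 min at RT with compound (up to 57.5 uM final), then substrate plus GAPDH/TPI/NAD/arsenate coupling and diaphorase/resazurin added. Fluorescence read after 20 min at RT, 525/598 nm.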
With `CC1(C)CC(=O)c2cnn(-c3nc4ccccc4[nH]3)c2C1` the Potency was inconclusive: 6.29 µM [activator, single point].
In the case of `CCn1c(=O)n(CC)c2cc(N3CCCC3)c(NC(=O)c3ccccc3Br)cc21`, the Potency is reported as inconclusive: 35.5 µM [inhibitor, single point].
With `Nc1sc2c(c1C(=O)NC1CCS(=O)(=O)C1)CCC2` (centres undefined) the Potency was inconclusive: 31.6 µM [inhibitor, single point].
`CN(C(=S)NC(=O)c1ccccc1)C1CCCCC1` was tested, and the Potency was inconclusive: 31.6 µM [inhibitor, single point].
In the case of `Cc1cc(C(=O)N/N=C/c2cc(Cl)cc([N+](=O)[O-])c2O)c2ccccc2n1`, the Potency is reported as inconclusive: 19.9 µM [activator, partial curve].
`CCCCC1=CC2=C(c3ccco3)C(=O)C(C)(OC(=O)c3ccc(OC)cc3)C(=O)C2=CN1Cc1ccc2c(c1)OCO2` (centres undefined) was tested, and the Potency was inconclusive: 7.92 µM [inhibitor, partial curve] and inconclusive: 3.97 µM [inhibitor, partial curve].
For `O=[N+]([O-])c1ccccc1/C=C/CN1CCC(O)CC1`, the Potency was inconclusive: 15.8 µM [inhibitor, partial curve].
In the case of `Cc1ccccc1C(=O)NNC(=S)NC(=O)c1ccccc1`, the Potency is reported as inconclusive: 5.61 µM [activator, full curve].
In the case of `COc1ccc(CN2CCN(C(=O)c3ccco3)CC2)cc1OC`, the Potency is reported as inconclusive: 19.9 µM [inhibitor, partial curve].
With `Cc1ccc(-c2cc(-c3ccccc3)nc(Cl)n2)cc1` the Potency was “inactive”.
`COCCNC(=S)Nc1cc(S(=O)(=O)N2CCOCC2)ccc1N1CCCCC1` was tested, and the Potency was active: 2.81 µM.
In the case of `COc1ccc(CC(=O)Nc2ccc(C(N)=O)cc2)cc1`, the Potency is reported as “inactive”.
`O/N=C/c1ccc2cccc(O)c2n1` was tested, and the Potency was active: 7.06 µM.
With `CC1(CC(=O)Nc2ccccc2)NC(=S)N(c2ccccc2)N1` (centres undefined) the Potency was inconclusive: 15.8 µM [inhibitor, single point].
For `O=C(Nc1ccon1)c1sc2cc(F)ccc2c1Cl`, the Potency was “inactive”.
`CN1CCN(CC(=O)Nc2ccccc2Sc2ccccc2)CC1` was tested, and the Potency was inconclusive: 15.8 µM [inhibitor, partial curve].
With `O=C(O)c1cc(-c2ccccc2Cl)n(-c2cccc(Cl)c2)n1` the Potency was inconclusive: 35.5 µM [inhibitor, partial curve, poor fit].
In the case of `CCN1CCN(CC(=O)Nc2ccc(OC(F)(F)F)cc2)CC1`, the Potency is reported as active: 17.8 µM.
For `Nc1ccc(O)c2c1C(=O)c1ccccc1C2=O`, the Potency was inconclusive: 15.8 µM [inhibitor, partial curve].
